In US11178870B2 (priority 2017, dated 2021):

Tests used:
[1] = tested on: Colletotrichum orbiculare; details: 250 ppm sprayed (2.5 ml/pot) before inoculation; assessed 6 to 10 days after inoculation
Magnaporthe grisea = assay type: in vivo; details: Table 7, Test A
Phytophthora infestans = assay type: in vivo; details: Table 7, Test F

Structure (SMILES)	control value, Test H (anthracnose on cucumber) [1]	control value, Test A (blast on rice) (Magnaporthe grisea)	control value, Test F (late blight on tomato) (Phytophthora infestans)
CCOc1cc(F)c(-c2c(-n3cc(F)cn3)cc(Br)c(=O)n2CC)c(F)c1 [Compound 317]	H (H shows the control value more than 50%)	–	–
Cc1cnn(-c2cc(Cl)c(=O)n(CC(F)F)c2-c2ccc(F)cc2Br)c1Cl [Compound 340]	H (H shows the control value more than 50%)	H (H shows the control value more than 50%)	L (L shows the control value of 50% or less)
CCn1c(-c2ccccc2Br)c(-n2cc(F)cn2)ccc1=O [Compound 356]	L (L shows the control value of 50% or less)	L (L shows the control value of 50% or less)	L (L shows the control value of 50% or less)
